Assay results from PubChem BioAssay (NCATS).
Where “and” joins values, the source holds several entries; their conditions need not be identical. Identical values can stand only once. The inconclusive results got no clear call from the source; some entries with a clear call stand among them for comparison. For part of these data: A potency beside an inconclusive call is a rough fit, not a confirmed value. Where a structure was tested more than once in an assay, its records may differ in their call. Calls of active or inactive are those of the source. Calls come from the whole dose curve; as a rule, active = well fitted curve in the direction sought with a large enough effect; inconclusive = small, poorly fitted or top-dose-only effect, or another doubt; inactive = no such curve, though single readings can be large; an effect the other way counts as inactive or inconclusive.

Columns and labels:
[1] = Viability qHTS for spleen associated tyrosine kinase inhibitor (SYKi) naive MV4-11 cells (AID 1963823); conditions: MV4-11 AML viability, CellTiter-Glo luminescence, 72 h; viability (% of control): at 45 µM (top of the series); note: nearly all actives have a fitted effect of over 40% in size; note: potency is the fitted concentration of half-maximal effect
Method in brief: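 SYKi-naive MV4-11 AML cells, 500 per well, were exposed to library compounds for 72 hr at 37 C, 5% CO2. Viability was then read by CellTiter-Glo luminescence after 10 min at room temperature.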

[2] = Viability qHTS for spleen associated tyrosine kinase inhibitor (SYKi) drug resistant MV4-11 cells (AID 1963824); note: nearly all actives have a fitted effect of over 35% in size; note: potency is the fitted concentration of half-maximal effect
Method in brief: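 CellTiter-Glo luminescence, read 10 min after reagent addition, reports viability after a 72 hr compound exposure. Cells are an MV4-11 line made resistant to SYK inhibition, seeded at 500 per well onto compound-containing plates.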

[3] = Quantitative highthroughput screen to assess conditional lethalithy of NOMO1 cells grown in RPMI1640 with dialyzed fetal bovine serum (RPMI+ds) (AID 1963877);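 note: 100% = DMSO control wells and 0% = empty wells; nearly all actives have a fitted effect of over 30% in size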
Method in brief: (§1)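 Each medium arm—HPLM with 10% dialyzed FBS, or RPMI1640 with 5 mM glucose and 10% untreated or dialyzed FBS—was screened against an 11-point, 3-fold compound titration for 48 h at 37 °C, with CellTiter-Glo luminescence as endpoint.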

[4] = Quantitative highthroughput screen to assess conditional lethalithy of P12 Ichikawa cells grown in RPMI1640 with dialyzed fetal bovine serum (RPMI+ds) (AID 1963880); conditions: Potency: P12-Ichikawa viability; note: nearly all actives have a fitted effect of over 35% in size; note: potency is the fitted concentration of half-maximal effect;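 for Viability: 100% = DMSO wells and 0% = empty wells on each plate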
Method in brief: as §1

[5] = Quantitative highthroughput screen to assess conditional lethalithy of SEM cells grown in Human Plasma-Like Medium with dialyzed fetal bovine serum (HPLM+ds) (AID 1963882); note: nearly all actives have a fitted effect of over 35% in size; note: potency is the fitted concentration of half-maximal effect
Method in brief: as §1

[6] = Quantitative highthroughput screen to assess conditional lethalithy of SEM cells grown in RPMI1640 with dialyzed fetal bovine serum (RPMI+ds) (AID 1963884); conditions: SEM B-ALL cells, RPMI+dialyzed FBS, CellTiter-Glo viability, 48 h; viability: at 45.8 µM (top of the series); note: potency is the fitted concentration of half-maximal effect; nearly all actives have a fitted effect of over 35% in size
Method in brief: as §1

[7] = Quantitative highthroughput screen to assess conditional lethalithy of NOMO1 cells grown in RPMI1640 with untreated serum (RPMI+s) (AID 1963876); conditions: NOMO1 AML cells in RPMI+serum, CellTiter-Glo viability, 48 h; viability: at 45.8 µM (top of the series)
Method in brief: as §1

[8] = Quantitative highthroughput screen to assess conditional lethalithy of NOMO1 cells grown in Human Plasma-Like Medium with dialyzed fetal bovine serum (HPLM+ds) (AID 1963878); conditions: NOMO1 AML cells in HPLM+ds, CellTiter-Glo viability, 48 h; viability: at 45.8 µM (top of the series)
Method in brief: as §1

[9] = Quantitative highthroughput screen to assess conditional lethalithy of P12 Ichikawa cells grown in Human Plasma-Like Medium with dialyzed fetal bovine serum (HPLM+ds) (AID 1963879); conditions: Potency: viability
Method in brief: as §1

[10] = Quantitative highthroughput screen to assess conditional lethalithy of P12 Ichikawa cells grown in RPMI1640 with untreated serum (RPMI+s) (AID 1963881); conditions: Potency: viability
Method in brief: as §1

[11] = Quantitative highthroughput screen to assess conditional lethalithy of SEM cells grown in RPMI1640 with unreated serum (RPMI+s) (AID 1963883); conditions: SEM B-ALL cells, CellTiter-Glo viability, 48 h; viability: at 45.8 µM (top of the series)
Method in brief: as §1

[12] = Cellular viability qHTS for adrenocortical cancer (ACC) cell line SW-13 (AID 1963989); conditions: SW-13 ACC cells viability, CellTiter-Glo, 48 h; activity (max response): stronger effect = lower value;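 note: cells grown in serum-free medium with ITS supplement; % is set by controls: 0 for no effect and ±100 for the full control effect; nearly all actives have a fitted effect of over 65% in size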
Method in brief: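 Compound titrations (up to 46 uM final, in DMSO) were applied to SW-13 cells for 48 h at 37C/5% CO2. Reading used CellTiter-Glo after 20 min at room temperature; fitted curves yielded IC50 and efficacy.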
Tags give direction and shape of the fitted curve.

SMILES: CCOC(=O)c1cc(C#N)c(N2CCC(C(=O)NS(=O)(=O)Cc3ccccc3)CC2)nc1C
- Potency [1]: inactive

SMILES: Cn1c(CNc2ccc(C(=N)N)cc2)nc2cc(C(=O)N(CCC(=O)O)c3ccccn3)ccc21
- Potency [1]: active: 4.61 µM
- viability (% of control) [1]: inactive: 81.5% [at 0.588 µM]
- viability, % of control [2]: inactive: 94.3% [at 0.588 µM]
- Potency [3]: inactive
- Potency [4]: inactive
- Potency [5]: inactive
- Potency [6]: inconclusive: 0.0006 µM

SMILES: C=C1C(=O)OC2C1CCC(=C)C1CC(OC(C)=O)C(=C)C12 (configuration not stated)
- Potency [1]: active: 3.26 µM

SMILES: NC(=O)c1cnc2[nH]ccc2c1NC1C2CC3C[C@H]1CC(O)(C3)C2 (some centres not stated)
- Potency [1]: active: 0.105 µM

SMILES: Cc1ccc(S(=O)(=O)Nc2ccccc2N2CCCCC2)s1
- Potency [1]: inconclusive: 20.6 µM [cytotoxic, partial curve, poor fit]
- Potency [2]: active: 18.4 µM

SMILES: Cc1cn([C@H]2C[C@H](O)[C@@H](CO)O2)c(=O)nc1N
- Potency [1]: inactive

SMILES: CN(C)CCOC(C)(c1ccccc1)c1ccc(Cl)cc1 (configuration not stated)
- Potency [1]: inconclusive: 14.6 µM [cytotoxic, partial curve]

SMILES: CC(=O)O[C@@H]1C2=C(O)C(=O)[C@](C)(OC(C)=O)C(=O)C2=CO[C@@]12O[C@@H](C)CC[C@H]2OC(C)=O
- Potency [1]: inconclusive: 10 µM [cytotoxic, partial curve]
- Potency [2]: inconclusive: 7.96 µM [cytotoxic, single point]

SMILES: C[C@@H](NC(=O)[C@H](O)c1cc(F)cc(F)c1)C(=O)N[C@@H]1C(=O)N(C)c2ccccc2-c2ccccc21
- Potency [1]: inconclusive: 10.3 µM [cytotoxic, partial curve]

SMILES: COC(=O)c1ccc(OC)cc1O[C@@H]1O[C@H](CO[C@@H]2OC[C@@H](O)[C@H](O)[C@H]2O)[C@@H](O)[C@H](O)[C@H]1O
- Potency [1]: inactive

SMILES: CCNC(=O)Nc1ccc(-c2nc3c(c(N4CCOC[C@@H]4C)n2)CCN(c2ncccn2)C3)cc1
- Potency [1]: active: 0.13 µM
- Potency [2]: active: 0.164 µM

SMILES: CCOc1nc(NC(=O)Cc2cc(OC)ccc2OC)cc(N)c1C#N
- Potency [1]: inactive
- Potency [2]: inconclusive: 1.84 µM [cytotoxic, partial curve, poor fit]

SMILES: COc1ccc(C2=NC(c3ccc(Cl)cc3)C(c3ccc(Cl)cc3)N2C(=O)N2CCNC(=O)C2)c(OC(C)C)c1 (configuration not stated)
- Potency [1]: active: 16.4 µM

SMILES: CC[C@H](Nc1ncnc2nc[nH]c12)c1nc2cccc(F)c2c(=O)n1-c1ccccc1
- Potency [1]: inconclusive: 3.26 µM [cytotoxic, partial curve] and active: 332 nM
- viability (% of control) [1]: inactive: 57.2% [at 9.25 µM]
- Potency [2]: inconclusive: 6.51 µM [cytotoxic, partial curve] and inconclusive: 16.6 µM [cytotoxic, partial curve]
- Potency [7]: inconclusive: 20.9 µM [cytotoxic, single point]
- Potency [8]: inconclusive: 18.7 µM [cytotoxic, partial curve]
- Potency [9]: inconclusive: 16.6 µM [cytotoxic, partial curve]
- Potency [4]: inconclusive: 11.8 µM [cytotoxic, partial curve]
- Potency [10]: inconclusive: 5.9 µM [cytotoxic, partial curve]
- Potency [5]: inconclusive: 6.62 µM [cytotoxic, partial curve, poor fit]
- Potency [11]: inconclusive: 5.9 µM [cytotoxic, full curve, poor fit]
- Potency [6]: inconclusive: 18.7 µM [cytotoxic, partial curve, poor fit]
- activity (max response) [12]: inactive: -2.88%

SMILES: Cc1cc(O)c(C(C)C)cc1O[C@@H]1O[C@H](CO)[C@@H](O)[C@H](O)[C@H]1O
- Potency [1]: inactive

SMILES: CC1(C)CC(=O)N(CCCCN2CCN(c3ncccn3)CC2)C(=O)C1
- Potency [1]: inactive
- Potency [2]: inconclusive: 13 µM [cytotoxic, partial curve, poor fit]

SMILES: COc1ccc(-c2nc(-c3ccc(-c4cccc(Cl)c4)o3)[nH]c2-c2ccc(OC)cc2)cc1
- Potency [1]: inconclusive: 29.1 µM [cytotoxic, single point]
- Potency [2]: inconclusive: 16.4 µM [cytotoxic, partial curve]

SMILES: O=C(O)Cn1nnc(-c2ccc(CN(CCCCOc3ccc(CN4CCCC4)cc3)CCc3ccccc3)cc2)n1
- Potency [1]: inconclusive: 16.4 µM [cytotoxic, single point]
- Potency [2]: inconclusive: 20.6 µM [cytotoxic, single point]
